Experimental data reported in patent US20120148575A1 (AstraZeneca / MedImmune, published 2012).

Legend:
Experiment in all cases: flow cytometry on transgenic cells
[1] = biological target: T1, mouse IL-5Ralpha protein (mouse, UniProt P21183 18-415)
T1 construct: also called mouse IL-5Ralpha receptor
T1 sequence: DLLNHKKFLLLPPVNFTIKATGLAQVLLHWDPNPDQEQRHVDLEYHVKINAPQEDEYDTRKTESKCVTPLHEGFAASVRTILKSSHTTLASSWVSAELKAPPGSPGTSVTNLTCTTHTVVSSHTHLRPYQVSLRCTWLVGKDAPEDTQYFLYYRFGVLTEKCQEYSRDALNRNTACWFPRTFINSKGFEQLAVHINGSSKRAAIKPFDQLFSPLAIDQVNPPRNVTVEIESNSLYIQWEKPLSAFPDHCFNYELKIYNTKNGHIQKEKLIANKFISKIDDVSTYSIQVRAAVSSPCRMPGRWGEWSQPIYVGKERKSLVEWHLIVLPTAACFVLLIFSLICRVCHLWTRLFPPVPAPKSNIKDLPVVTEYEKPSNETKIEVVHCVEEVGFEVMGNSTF

[2] = biological target: T2, mutant human IL-5Ralpha protein comprising the K53Q, D56E, E58D, I61K amino acid substitutions (human, UniProt Q01344 21-420)
T2 construct: On transgenic cells; also called knock out-KDEI
T2 chain: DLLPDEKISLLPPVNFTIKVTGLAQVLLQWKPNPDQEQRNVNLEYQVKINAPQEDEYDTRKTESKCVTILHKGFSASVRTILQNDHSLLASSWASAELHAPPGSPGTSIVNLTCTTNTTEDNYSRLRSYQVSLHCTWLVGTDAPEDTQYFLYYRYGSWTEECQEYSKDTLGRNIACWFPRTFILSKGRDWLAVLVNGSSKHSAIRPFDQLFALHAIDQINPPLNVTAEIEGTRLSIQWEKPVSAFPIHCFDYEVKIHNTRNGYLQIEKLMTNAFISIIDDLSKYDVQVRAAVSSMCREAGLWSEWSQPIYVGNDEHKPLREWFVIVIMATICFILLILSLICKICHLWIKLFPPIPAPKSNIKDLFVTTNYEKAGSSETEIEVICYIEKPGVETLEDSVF

[3] = biological target: T3, mutant human IL-5Ralpha protein comprising the I61K amino acid substitution (human, UniProt Q01344 21-420)
T3 construct: On transgenic cells; also called knock out-I61
T3 sequence: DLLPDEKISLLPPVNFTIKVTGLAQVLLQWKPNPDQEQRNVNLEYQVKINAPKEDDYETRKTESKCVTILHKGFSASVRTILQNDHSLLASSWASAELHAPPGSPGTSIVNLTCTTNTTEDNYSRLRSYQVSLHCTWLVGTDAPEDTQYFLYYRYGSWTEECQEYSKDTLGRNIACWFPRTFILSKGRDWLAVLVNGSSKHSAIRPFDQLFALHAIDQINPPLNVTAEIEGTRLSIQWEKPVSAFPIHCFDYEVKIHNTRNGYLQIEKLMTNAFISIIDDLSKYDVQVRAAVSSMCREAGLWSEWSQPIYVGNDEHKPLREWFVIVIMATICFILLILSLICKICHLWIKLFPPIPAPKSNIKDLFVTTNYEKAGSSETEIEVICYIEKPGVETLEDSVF

Measured: binding result

B1: MEDI-563, humanized afucosylated IgG1 anti-IL-5R alpha chain monoclonal antibody (antibody)
heavy: EVQLVQSGAEVKKPGASVKVSCKASGYTFTSYVIHWVRQRPGQGLAWMGYINPYNDGTKYNERFKGKVTITSDRSTSTVYMELSSLRSEDTAVYLCGREGIRYYGLLGDYWGQGTLVTVSS[gap - human IgG1 constant region]
light: DIQMTQSPSSLSASVGDRVTITCGTSEDIINYLNWYQQKPGKAPKLLIYHTSRLQSGVPSRFSGSGSGTDFTLTISSLQPEDFATYYCQQGYTLPYTFGQGTKVEIKRTVAAPSVFIFPPSDEQLKSGTASVVCLLNNFYPREAKVQWKVDNALQSGNSQESVTEQDSKDSTYSLSSTLTLSKADYEKHKVYACEVTHQGLSSPVTKSFNRGEC
modifications: Fc N-glycan without fucose (afucosylated, Potelligent); the letters cannot carry it.
notes: Humanized, afucosylated IgG1 (Potelligent technology); also called BIW-8405; copies: 2 + 2
no binding: all assays above
